# Results as given in patent US20240139198A1, “METHOD AND COMBINATION FOR TREATING TUMORS” (CURON BIOPHARMACEUTICAL (SHANGHAI) CO., LIMITED, priority 2021, published 2024).
# B1: CN202: PD-L1/TGFβ dual inhibitor; two polypeptides of anti-PD-L1 VH, CH2, CH3 domains and TGFβRII fragment joined by linker (SEQ ID NO: 7) (protein)
# chain: EVQLVESGGGLVQPGGSLRLSCAASGHFSNLAVNWFRQAPGKERELVAGILWSGGSTFYADSVKGRFTISRGNAENMLYLQMNSLRAEDTAVYYCNTGTNWGQGTLVTVSS[in this place human IgG1 Fc]GGSGGGGSGGGGSGGGGSIPPHVQKSVNNDMIVTDNNGAVKFPQLCKFCDVRFSTCDNQKSCMSNCSITSICEKPQEVCVAVWRKNDENITLETVCHDPKLPYHDFILEDAASPKCIMKEKKKPGETFFMCSCSSDECNDNIIFSEEYNTSNPD
# modifications: homodimer
# Assays:
# [1] = tested on: A20 cells; test: A20 mouse B-cell lymphoma animal model, tumor growth in Balb/c mice; format: in vivo
# Experimental: The animal experiment was carried out in accordance with the requirements of AAALAC, and was approved by Bikai Animal Experiment Center IACUC to conduct. 6-8 week-old Balb/c mice (16-20 grams) were purchased from Beijing Weitong Lihua Experimental Animal Technology Co., Ltd. Each mouse was subcutaneously inoculated with 500,000 A20 cells, and inoculated on the right rear side of the back of the mouse. When the volume of the tumor grew to about 60mm^3, the mice were randomly assigned to the control group and the experimental group.
# Mice were euthanized whnmorbidity or weightloss>20% was observed. Tumors were measured with a caliper twice weekly until final sacrifice. When a tumor size reached approximately 2000 mm^3 or there were animal health issues (20% area of a tumor ulcerated), the animals would be euthanized an date of death recorded. Solid tumor volumes were estimated from two dimensional tumor measurements and calculated according to the following equation:
# Tumor volume (mm 3)=[length(mm)×width2 (mm 2)]/2
# The percent median regression for a group at a given day was then obtained by taking the median of the individual percent regression calculated for each animal of the group at this day. The day of calculation was determined on the day when ΔT/ΔC (i.e., the ratio of medians of tumor volume changes from baseline between the treated and control groups)was calculated, except when median percent regression was not representative of the activity of the group. In that case, the day was determined on the first day when the median percent regression was maximal. Regressions were defined as partial (PR) if the tumor volume decreased to 50% of the tumor volume at the start of treatment. Complete regression (CR) was considered to have been achieved when tumor volume was below 14 mm^3 or could not be recorded. • RTV: Relative Tumor Volume. RTV=Vt/V0∘ Vt: Tumor volume at the end of an experimental period (treatment group). V0: tumor volume at the beginning of the experiment • TGI: Tumor Growth Inhibition value. TGI=[1−RTV(experimental group)/RTV(control group)]*100%
# A two-way ANOVA type with factors treatment an day(repeated) was performed on tumor volume changes from baseline. In case of significant treatment day interaction or treatment effects, it was followed by a contrast analysis with Bonferroni-Holm correction for multiplicity to compare all treated groups to the control group at each day from day 8 to 27. Tumor volume changes from baseline were calculated for each animal and each day by subtracting the tumor volume on the day of first treatment from the tumor volume on the specified observation day. As heterogeneity of variances was observed between groups, the compound symmetric(CS) covariance structure with group=option was chosen for the ANOVA type model (SAS Institute Inc. (2008) SAS/STAT 9.2User′s Guide by CaryNC). All statistical analyses were performed using SAS version v9.2 software. A probability less than 5% (p<0.05).
# 6-8 weeks old balb/c mice (18-20 g) were purchased from Beijing Weitong Lihua Experimental Animal Technology Co., Ltd., and each mouse was subcutaneously inoculated with 500,000 A20 cells on the right rear side of the mouse's back. Treatment was initiated when tumors grew to a volume of approximately 62 mm^3. CN401 was orally administered at 150 mg/kg twice a day for 3 weeks.
# CN202 was administered by intraperitoneal injection, 3 times a week at a dose of 5 mg/kg for 3 weeks. The control group was treated with vehicle (0.5% MC and PBS) without active product. Tumor size and body weight were measured three times a week. This animal experiment was carried out in accordance with the requirements of AAALAC, and was approved by Bikai Animal Experiment Center IACUC to conduct this animal experiment.
# Referring to the experimental method of Example 1.1, the difference is that the dosage of CN202 is replaced by 15 mg/kg from 5 mg/kg. […]
# [2] = tested on: EMT-6 cells (mouse triple-negative breast cancer cells); format: in vivo; details: Example 4, CN202 15 mg/kg i.p. three times a week × 2 week + once a week × 2 week
# Experimental: Tumors were measured with a caliper twice weekly until final sacrifice. […] Solid tumor volumes were estimated from two dimensional tumor measurements and calculated according to the following equation: […]
molecule,measurement,setting,value
B1,CR(Number of mice with tumor regression/total amount of mice in each group),"[1]; Example 1.1, CN202 5 mg/kg i.p. tiw × 3 weeks, day 22",1/8
same,TGI %,"[1]; Example 1.1, CN202 5 mg/kg i.p. tiw × 3 weeks, day 22 vs vehicle control, p=0.27",31%
same,CR(Number of mice with tumor regression/total amount of mice in each group),"[1]; Example 1.2, CN202 15 mg/kg i.p. tiw × 3 weeks, day 22",2/8
same,TGI %,"[1]; Example 1.2, CN202 15 mg/kg i.p. tiw × 3 weeks, day 22 vs vehicle control, p=0.014",58%
same,CR(Number of mice with tumor regression/total amount of mice in each group),"[1]; Example 2.1, CN202 5 mg/kg i.p. tiw × 3 weeks, day 22",1/7
same,TGI %,"[1]; Example 2.1, CN202 5 mg/kg i.p. tiw × 3 weeks, day 22 vs vehicle control, p=0.004",68%
same,CR(Number of mice with tumor regression/total amount of mice in each group),"[1]; Example 2.2, CN202 5 mg/kg i.p. tiw × 3 weeks, day 21",1/7
same,TGI %,"[1]; Example 2.2, CN202 5 mg/kg i.p. tiw × 3 weeks, day 21 vs vehicle control, p=0.004",68%
same,TGI %,"[2]; 14th day vs vehicle control, p=0.11",42%
same,CR(Number of mice with tumor regression/total amount of mice in each group),[2]; observed up to 80 days,0/8
